From PMC10726135
This is one part of the list. At the low end of the ranking, values are background and their order means little. Measured with an extract: partners may take part in the binding.

Target: T1, HNF4alpha2 (COS-7 nuclear extract) (UniProt P41235)
T1 sequence: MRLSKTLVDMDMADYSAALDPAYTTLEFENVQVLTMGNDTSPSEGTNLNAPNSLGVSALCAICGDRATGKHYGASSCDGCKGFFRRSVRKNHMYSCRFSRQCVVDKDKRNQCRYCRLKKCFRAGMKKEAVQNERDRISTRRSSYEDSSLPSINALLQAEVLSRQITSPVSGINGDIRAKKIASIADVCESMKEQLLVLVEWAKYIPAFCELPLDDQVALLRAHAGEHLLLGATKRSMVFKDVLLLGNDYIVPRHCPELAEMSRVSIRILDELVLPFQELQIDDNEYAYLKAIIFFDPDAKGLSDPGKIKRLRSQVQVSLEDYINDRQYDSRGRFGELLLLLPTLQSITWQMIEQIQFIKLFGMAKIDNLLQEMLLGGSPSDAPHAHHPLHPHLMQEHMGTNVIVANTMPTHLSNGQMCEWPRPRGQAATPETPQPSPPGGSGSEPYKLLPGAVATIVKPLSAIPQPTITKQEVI
Assay: protein-binding microarray
Settings: COS-7 nuclear extract on double-stranded Agilent 4x180k PBM; binding buffer, salt, pH and temperature not given; high values mean tight binding; double strand, one strand shown; sequences stand for … in …GCCTAGGGAGATTAGAGTATCGGTCGA

Sequence | binding signal (log2 normalized intensity)
AAAGTCTACATTCTAGATGACCCCTCTCTA | 3.98
ATCATGAACTGAGTACTATCAGATCCACCA | -0.631
GTAATCCCATTTCCCTTGTTTACCTTGGTG | 1.95
GGGTGGTGGTTACCGGCAGAGGCTGCAGAG | 0.249
AGTGCACCTTAATAAGCACATTCCTTTCCC | -0.816
CCCAGTATGAGCGGCGCTGACCCCGGGAGC | 2.54
AGTGAGCCTTGCCGTGCTGCGGTGGGCTCC | -1.25
GCCTCATGGACTTTGAAGGAGATTCCTGTG | 0.859
ATCCTTATGGTCTCTTCCAAAGCTGAAATG | 1.15
AGCAGCCTCAGTGGCTCACAAATGGAGTTT | 0.801
GAAACATCTACCCTTGACAATTCCTATTCA | -1.15
GATTCCACCTTAGAGGGACGAAGGTCACTA | 3.88
GATTAGATAACATCTGGACTTTACACAGAC | 3.76
CTCAGAACTACCAATGTTTACCAGCTCTGT | -1.15
TTCCCTATCCCGCTGCTTCCACCAGGGCTA | -1.2
TCTTATTTACCGAAATGTGGGTGAGGCTGT | 1.6
AGAGCATTTCAAACCTTTGCCCCACTCTCC | 4.32
AGATGATAAGCCCTGAGTAGTTCTTCTGGT | 0.188
AGAACTTCTCATCTTATCTAGTTTCCTAGC | -0.146
CCAACCCAACTAGAATGGAACTGAAGGCAG | -1.17
AGGCTGAGGCAGGATGACTGCTTGAGTCCA | 0.968
GAAAGCCTGTTTGCTTCTGCTGTTTGTTTC | 1.77
AATCAAACTCTCTGTGGATGTATGTCCAGA | 1.19
AAGTAGAATGAAAGCGGCTCAGGAAACAGC | -1.16

Sequence | binding signal (log2 normalized intensity)
ATACTATTCATCCTCCAAAACCCAGTTCAT | 3.39
ATACCCAGAGTGATCTTTGAAACATAACAG | 1.56
TCAAACAGCTTCGCCTCCTCCAAGCATACC | -1.05
TGGAGGCTGGAGCTCCTGGGCCAAAGGGCA | 3.46
TTTGTGTTTGTCCCTTTCTTCTTCTGCCAC | 1.37
GAAAGTCTGACCCTTGACCAAGCAGCTGTT | 3.51
CGAGTCAAGGGTCAATCCTCTCTTTGGAAT | 2.31
AGAACAAGGTAGCCACAGAATGACTCTTGT | -0.979
GTGGATGCTGGAATGAGGGAGGCAGCCACC | -1.16
CCCATCTTCCAGAAATGCCAAGATCAGGGC | -0.946
CTTCTGCCCCCGCAGACCCAGTCTTAGGGA | 4.14
TTTTCCTCTAACCACTTTGAAATAGTGACC | 2.46
GAAGCTTGAAGGAGTATATGGCTAAGCGAA | -0.94
GGAACCCCACCCCCACGCCCCCCAGCGGAA | 7.16
AGGTTGCAGTGAGCTGTGATTGCGCCACTG | -1.15
GTCAAACTGATCAGAAGTGGTTACATCTAT | -0.449
TAGGTCCCTGCTTCCAAGTCTCAGCACCTG | -1.1
GCCGGCCCGCAGGTCAGTCGACCCTCTCTG | 1.53
GCAGTCAGGACTCTGGGACCGCAGGGGGCT | -1.14
TGGACTCCTCTTATCTTCAGGTATCCTTAA | 1.07
ATGACCTGGACAGGTCCAAGGTTCTCCAGG | 1.61
ACAAAGGGGGAGGGAGATAGAGAAAGAAAA | -1.14
GAGACACCTGGCCAAGTACAGCCTGTGCTA | -1.09
AACAGAGTCTCCGAGGAACCCAGACTGCAT | -1.11

Sequence | binding signal (log2 normalized intensity)
ACCTTTGGGCTAAAAAGGAAGCTGTGTGTG | 1.71
AGATGAGTTTCTTCACTGACGAAACTCACA | -1.13
TATCTCCAGCAAACGTTCTTCTCTAACCCT | -1
TGGATGGGGGCGTTCCCCGAGCGAGCTCCG | -1.09
GTCAATAGGGCAGGGGGGAGATGAAATCTG | -1.18
TGCACTTTACGTAAGATAAGGTGAACATAC | 0.896
AAGGTCAGGACCACACATTCCATTACTGCA | -1.18
CCTAAAACATCAAATACCTCCAAGAGGTTT | -1.07
AAAGGAGACTTTTAAGTGGGGTCAAAGGGT | 5.04
AACTCACAGTCTGGCAGTGAAGGTTCAGTG | 1.62
AAGTAAGCAGACACTGAAAGATGGTATGCT | -1.04
GCTGCCAATGCAAATCCCAGAGTTCAAAGG | 4.35
ACAGAGAGAAAGCAGTGACCATCCCAAAGC | -1.19
TGCTTAACTATGTTTATCAGAGCAAAGTTC | 3.34
GACCCTGAAAACAGGGCAAGGAACGGAATG | 0.0634
GTGAGCAGGTGTGTGGCATCTTGGGGTCAA | 3.48
TGAGGCCTGGCCGAGGTTGCCCAGCTATTA | -0.984
TTTTAGATTAGGAGAGGGAGAGTGAGTGAG | 1.36
ACCGTAGCCTGACCATCACCACTTCAAGCT | -1.15
TTATCATAAGTCAGCCTGGCTGAAGACCTG | 0.568
GGCAGTGTGGCACCCTCCCTTCCCGGGGAG | -1.06
GAGAGGAGAAAGAGCAATCTCTCATCTGCC | -0.986
ATCTCTTGACTCTTCCCATCTAACTGCCCC | 4.21
GCTCTCAGAATAGCAAATCTGTTACGAGTG | 0.334
